Values joined by “and” are separate entries in the source; they are usually repeats but may differ in a detail not shown here. Identical values can stand only once. Among all 150,000 compounds or so, about 6,500 (4.3%) were called active. The shares of active, inactive and inconclusive entries below differ from those in the screen. The call rests on the fitted dose curve; in most records, active means well fitted inhibition curve with a large enough effect (not every such curve was filed as active); inconclusive means small, poorly fitted or top-dose-only effect, or another doubt; inactive means no such curve, though single readings can be large or run the other way. A potency beside an inconclusive call is a rough fit, not a confirmed value.
biological target: 15-hydroxyprostaglandin dehydrogenase [NAD(+)] (Homo sapiens) (UniProt P15428); assay: qHTS Assay for Inhibitors of HPGD (15-Hydroxyprostaglandin Dehydrogenase); settings: purified HPGD, NADH fluorescence kinetic, PGE2 substrate; activity change, negative = inhibition: hits give low values
Chain of UniProt P15428 (P15428 whole entry, looked up): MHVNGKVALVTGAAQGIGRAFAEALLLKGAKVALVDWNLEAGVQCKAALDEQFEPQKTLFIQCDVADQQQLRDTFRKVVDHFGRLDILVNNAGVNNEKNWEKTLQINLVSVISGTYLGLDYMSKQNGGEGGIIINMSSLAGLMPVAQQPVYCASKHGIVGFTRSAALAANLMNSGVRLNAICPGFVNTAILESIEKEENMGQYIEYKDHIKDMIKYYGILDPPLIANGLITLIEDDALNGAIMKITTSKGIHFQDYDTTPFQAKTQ
Method in brief: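 20 nM HPGD preincubated 15 min at room temperature with compound in 50 mM Tris-HCl pH 8, 0.01% Tween 20. Started with 1 mM NAD+ and 30 uM prostaglandin E2; NADH fluorescence (360/450 nm) read 5 times over 30-s intervals, last minus first.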
On the % scale 0 is the no-effect control and ±100 the full control effect; potency means the concentration at half of the fitted maximal effect; tags describe the fitted curve by direction and shape.

| Structure (SMILES) | Potency | activity change, negative = inhibition |
| --- | --- | --- |
| CC(=O)C1=C(C)NC(SCC(=O)c2cc(Cl)ccc2Cl)=C(C#N)C1c1ccco1 (stereo not given) | active: 28.2 µM |  |
| Cc1cc(C)cc(CSc2nnc(C)c(=O)[nH]2)c1 | inconclusive: 25.1 µM [inhibitor, partial curve] |  |
| COC(=O)Cc1c(C)nc2nc(-c3ccco3)[nH]n2c1=O | inconclusive: 17.8 µM [inhibitor, partial curve] |  |
| O=C(c1ccncc1)N1CCC2(CCCN(c3ccccc3)C2)CC1 |  | inactive: -9.24% |
| CCCCn1c(NCc2ccccc2O)nc2ccccc21 | inconclusive: 39.8 µM [inhibitor, single point] |  |
| CNC(=O)/C(C#N)=C/c1ccc(-c2ccc(OC)cc2[N+](=O)[O-])o1 | active: 7.08 µM |  |
| CCOc1ccc(Cl)cc1S(=O)(=O)N1CCCC1 |  | inactive: -8.29% |
| COC(=O)c1[nH]c2cccc(OC)c2c1NC(=O)C(C)N1CCC(C)CC1 (stereo not given) | inconclusive: 25.1 µM [inhibitor, partial curve] |  |
| N[C@@H](Cc1ccccc1)c1nnc2sc(SCc3ccccc3)nn12 | active: 28.2 µM |  |
| CC(C)c1ccc(O)c(NC(=O)c2cncc(Br)c2)c1 | inconclusive: 39.8 µM [inhibitor, partial curve] |  |
| COC(=O)c1ccc(-c2nc3ccccc3o2)cc1 | inconclusive: 28.2 µM [inhibitor, partial curve] |  |
| CCOC(=O)c1sc(N2N=C(C)/C(=C\c3ccc(OCC(=O)OC)cc3)C2=O)nc1C | active: 28.2 µM |  |
| Cc1ccc(-c2n[nH]c(=S)n2/N=C/C=C/c2ccccc2[N+](=O)[O-])cc1 | active: 2.82 µM |  |
| CC(=O)Nc1nc(CC(C)C)cc(-c2ccco2)c1C#N | inconclusive: 31.6 µM [inhibitor, partial curve] |  |
| CCOC(=O)C1=C(c2ccccc2)NC(SCC(=O)Nc2ccc(C)cc2)=C(C#N)C1c1ccco1 (stereo not given) |  | inactive: -27.2% |
| O=C1C(Cl)=C(N2CCCCC2)C(=O)N1c1ccccc1 | active: 17.8 µM |  |
| COc1ccc(CCNC(=O)c2nnc(Cc3ccc(Cl)cc3)o2)cc1OC |  | inactive: -11.3% |
| Brc1cccc(-c2cnc3n2CCCCC3)c1 | inconclusive: 22.4 µM [inhibitor, partial curve] |  |
| CNC(=S)NNC(=O)CCn1nc(C)c(Br)c1C |  | inactive: -11.7% |
| Cc1ccn2cc(CSc3ccccc3)nc2c1 |  | inactive: -11.5% |
| CC(=O)c1cccc(NS(=O)(=O)c2cc(OCC(N)=O)c(C)cc2Cl)c1 |  | inactive: -7.79% |
| Cc1ccc(N(Cc2ccc(C(=O)Nc3ccccc3C(=O)NCc3ccco3)cc2)S(C)(=O)=O)cc1C | inconclusive: 39.8 µM [inhibitor, single point] |  |
| COc1cccc(NC(=O)c2oc3ccccc3c2NC(=O)C(C)(C)C)c1 | inconclusive: 39.8 µM [inhibitor, partial curve] |  |
| CC(=O)Nc1sc(C)c(C)c1C(=O)OCC(=O)N(C)C1CCS(=O)(=O)C1 (stereo not given) | inconclusive: 35.5 µM [inhibitor, single point] |  |

| Structure (SMILES) | Potency | activity change, negative = inhibition |
| --- | --- | --- |
| Cc1nc(-c2ccc(NS(C)(=O)=O)cc2)cs1 | active: 15.8 µM |  |
| CCOC(=O)C1=C(C)OC(N)=C(C#N)C1c1c(C)nn(-c2ccc(C)cc2)c1Cl (stereo not given) |  | inactive: -15.8% |
| O=C(c1ccco1)c1cn(CC(=O)N2CCCc3ccccc32)c2ccccc12 | inconclusive: 31.6 µM [inhibitor, partial curve] |  |
| CC(=O)c1cc2c(cc1NC(=O)Nc1cccc(Cl)c1)OCCO2 | inconclusive: 35.5 µM [inhibitor, single point] |  |
| O=C(CN1CCCc2ccccc21)N/N=C/c1c(O)ccc2ccccc12 | inconclusive: 39.8 µM [inhibitor, single point] |  |
| COc1cccc2c(=O)cc(C)n(CC(=O)Nc3ccccc3C)c12 | inconclusive: 31.6 µM [inhibitor, single point] |  |
| CCOC(=O)c1c(NC(=O)CSc2nc3ccccc3o2)sc(C(C)=O)c1C | inconclusive: 25.1 µM [inhibitor, partial curve, poor fit] |  |
| COCCCNC(=O)c1ccccc1NS(C)(=O)=O | inconclusive: 31.6 µM [inhibitor, partial curve] |  |
| O=C(OCc1ccccn1)c1ccc(COc2ccccc2Cl)o1 | inconclusive: 20 µM [inhibitor, partial curve] |  |
| CCN(C(=O)COC(=O)c1ccccc1SCC(=O)NC1CCCCCCC1)C1CCS(=O)(=O)C1 (stereo not given) | inconclusive: 15.8 µM [inhibitor, partial curve] |  |
| CCOc1ccc(N=C2NC(=O)/C(=C/C(=O)OC)S2)cc1 | inconclusive: 28.2 µM [inhibitor, partial curve] |  |
| N#CCCn1c(-c2nonc2NC(=O)c2ccccc2Cl)nc2ccccc21 | inconclusive: 15.8 µM [inhibitor, partial curve] |  |
| Nc1c(C(=O)NC2CC2)sc2nc3c(c(-c4ccco4)c12)CC/C3=C/c1ccco1 | active: 15.8 µM |  |
| N#Cc1c(N)nc(SCC(=O)C23CC4CC(CC(C4)C2)C3)c(C#N)c1-c1ccc(Cl)cc1 | inconclusive: 31.6 µM [inhibitor, partial curve] |  |
| COCCNC(=O)c1ccc(NS(C)(=O)=O)cc1 | inconclusive: 22.4 µM [inhibitor, partial curve] |  |
| CCc1cc(=O)oc2c(CN3CCN(C)CC3)c(O)c(Cl)cc12 | inconclusive: 3.55 µM [inhibitor, partial curve] |  |
| CCN1CCCC1CNc1ncnc2c1[nH]c1ccc(F)cc12 (stereo not given) | inconclusive: 31.6 µM [inhibitor, partial curve] |  |
| COC(=O)C(C)Oc1ccc2c3c(c(=O)oc2c1)CCCCC3 (stereo not given) | inconclusive: 15.8 µM [inhibitor, partial curve] |  |
| CSc1cccc(NC(=O)Cn2cccc2)c1 | active: 14.1 µM |  |
| CCc1ccc(-c2cc(C(F)(F)F)n3nc(C(=O)Nc4c(C)nn(Cc5ccccc5C)c4C)cc3n2)s1 | inconclusive: 25.1 µM [inhibitor, partial curve] |  |
| Cn1c(=O)c(C(=O)COC(=O)c2cc(-c3ccco3)nc3ccccc23)c(N)n(CC2CC2)c1=O | inconclusive: 12.6 µM [inhibitor, partial curve] and inconclusive: 28.2 µM [inhibitor, partial curve] |  |
| COc1ccccc1N1C(=O)C2ON(c3ccccc3)C(c3ccc(N(C)C)cc3)C2C1=O (stereo not given) | inconclusive: 39.8 µM [inhibitor, single point] |  |
| COc1c(Cl)cc(Cl)cc1/C=N/n1cnnc1 | inconclusive: 35.5 µM [inhibitor, partial curve, poor fit] |  |
| COc1ccccc1-c1cc(C(=O)NCc2ccco2)no1 | active: 20 µM |  |

| Structure (SMILES) | Potency | activity change, negative = inhibition |
| --- | --- | --- |
| Cc1cc(Nc2ccc(Cl)cc2)n(-c2ccccc2)n1 | active: 7.94 µM |  |
| CC1CCN(C(=O)CCCOc2ccc(Cl)cc2)CC1 | active: 2.82 µM |  |
| O=C(O)c1n[nH]c2ccccc12 |  | inactive: -6.26% |
| O=S(=O)(Nc1nc2ccccc2nc1NCc1ccco1)c1ccccc1 |  | inactive: -4.75% |
| Cn1c(=O)c2c3c(sc2n2c(SCc4ccc5c(c4)OCO5)nnc12)COC(C)(C)C3 |  | inactive: -9.59% |
| CCNc1ncc2nc(-c3ccc(OC)cc3)c(=O)n(-c3ccc(OC)cc3)c2n1 | inconclusive: 0.794 µM [inhibitor, full curve, poor fit] |  |
| Cc1nc(SCC(=O)O)c2oc3ccccc3c2n1 | active: 17.8 µM |  |
| CC(=O)Oc1ccc(Cl)cc1/C=C/c1ccc2ccccc2n1 | inconclusive: 35.5 µM [inhibitor, single point] |  |
| CC(=O)Cc1nsc(NC(=O)c2ccc(-c3ccccc3Cl)o2)n1 | inconclusive: 1.26 µM [inhibitor, full curve, poor fit] |  |
| O=C(Cc1nc(-c2ccc([N+](=O)[O-])cc2)cs1)Nc1ccccc1 |  | inactive: -19.3% |
| COC(=O)c1ccc(CSc2nc3scc(-c4cccs4)c3c(=O)[nH]2)o1 | inconclusive: 39.8 µM [inhibitor, single point] |  |
| Clc1cccc(-c2cc3nc4c(c(N5CCOCC5)n3n2)CCCC4)c1 | inconclusive: 31.6 µM [inhibitor, partial curve] |  |
| O=C(NC(=S)NNS(=O)(=O)c1ccccc1)c1ccccc1[N+](=O)[O-] | active: 20 µM |  |
| C=C1c2cccc(O)c2C(O)=C2C(=O)[C@]3(O)C(O)=C(C(N)=O)C(=O)C(N(C)C)C3C(O)C12 (stereo not given in full) | active: 15.8 µM |  |
| OC1(c2ccc(F)cc2)CN(c2ccccc2)C2=[N+]1CCS2 (stereo not given) |  | inactive: -8.17% |
| CCNc1ncc2nc(CCc3ccccc3)c(=O)n(C)c2n1 | inconclusive: 15.8 µM [inhibitor, partial curve] |  |
| O=C(Nc1ccc(/C=C/c2nc3ccccc3o2)cc1)c1ccc(F)cc1 | inconclusive: 28.2 µM [inhibitor, partial curve] |  |
| Cc1ccc(CNC(=O)C2CCCN(S(=O)(=O)c3cccnc3)C2)cc1 (stereo not given) |  | inactive: 0.73% |
| Cc1ccc(-c2cc(C(=O)N3CCN(c4ccc(F)cc4)CC3)c3ccccc3n2)o1 | inconclusive: 31.6 µM [inhibitor, single point] |  |
| CCC(=O)Nc1cc2nn(-c3ccccc3)nc2cc1Cl | inconclusive: 35.5 µM [inhibitor, partial curve] |  |
| O=C1O/C(=C\c2ccccc2)c2ccccc21 | inconclusive: 35.5 µM [inhibitor, partial curve, poor fit] |  |
| Cn1nc(-c2ccc(OCC(=O)Nc3ccccc3)cc2)c2ccccc2c1=O | active: 28.2 µM |  |

Reference: PubChem BioAssay AID894 (National Center for Advancing Translational Sciences (NCATS), 2007)
